Some of the results follow. Repeats are few or missing, and single values can be far off.
Assays:
Test in all cases: cell count relative to DMSO control; melanoma cells; higher = more viable cells
Conditions in all cases: library dose: standard library concentration; 72 h
G361 = test system: G361
IPC-298 = test system: IPC-298
IST-MEL1 = test system: IST-MEL1
LB2518-MEL = test system: LB2518-MEL
LOXIMVI = test system: LOXIMVI
MEL-HO = test system: MEL-HO
MZ2-MEL = test system: MZ2-MEL
MeWo = test system: MeWo
RPMI7951 = test system: RPMI7951
RVH-421 = test system: RVH-421
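Further: cells treated in 1,536-well plates, then fixed and DAPI-stained, with nuclei counted from automated high-throughput microscope images.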

| SMILES | cell count (G361) | cell count (IPC-298) | cell count (IST-MEL1) | cell count (LB2518-MEL) | cell count (LOXIMVI) | cell count (MEL-HO) | cell count (MZ2-MEL) | cell count (MeWo) | cell count (RPMI7951) | cell count (RVH-421) |
| --- | --- | --- | --- | --- | --- | --- | --- | --- | --- | --- |
| COc1cc([C@@H]2c3cc4c(cc3[C@@H](O[C@@H]3O[C@@H]5CO[C@@H](C)O[C@H]5[C@H](O)[C@H]3O)[C@H]3COC(=O)[C@H]23)OCO4)cc(OC)c1O [etoposide] + C[C@@H](N)c1ccc(C(=O)Nc2ccnc3[nH]ccc23)cc1 [RKI983] (first compound 0.1 µM, partner dose 2 µM) | 96.6% | 59.7% | 92.7% | 104% | 55.2% | 59.1% | 31.1% | 64.3% | 48.2% | 54.9% |
| C[C@]1(O)C[C@@H](c2nc(-c3ccc4ccc(-c5ccccc5)nc4c3)c3c(N)nccn32)C1 + O=C(CCCCCCC(=O)Nc1ccccc1)NO [vorinostat] (first compound 2 µM, partner dose 0.4 µM) | 57% | 79.4% | 89.6% | 90.1% | 56.8% | 85.2% | 105% | 63.5% | 61.3% | 96.3% |
| COc1cc([C@@H]2c3cc4c(cc3[C@@H](O[C@@H]3O[C@@H]5CO[C@@H](C)O[C@H]5[C@H](O)[C@H]3O)[C@H]3COC(=O)[C@H]23)OCO4)cc(OC)c1O [etoposide] + CO[C@H]1C[C@@H]2CC[C@@H](C)[C@@](O)(O2)C(=O)C(=O)N2CCCC[C@H]2C(=O)O[C@H]([C@H](C)C[C@@H]2CC[C@@H](OCCO)[C@H](OC)C2)CC(=O)[C@H](C)/C=C(\C)[C@@H](O)[C@@H](OC)C(=O)[C@H](C)C[C@H](C)/C=C/C=C/C=C/1C [everolimus] (first compound 0.1 µM, partner dose 0.1 µM) | 76.8% | 67.7% | 82.7% | 78.1% | 68.7% | 70.9% | 74.1% | 72.1% | 83.1% | 374% |
| Cn1cnc2c(F)c(Nc3ccc(Br)cc3Cl)c(C(=O)NOCCO)cc21 [selumetinib] + C=CCn1c(=O)c2cnc(Nc3ccc(N4CCN(C)CC4)cc3)nc2n1-c1cccc(C(C)(C)O)n1 [MK1775] (first compound 0.075 µM, partner dose 0.1 µM) | 53.5% | 49% | 73.4% | 38.2% | 75% | 83% | 55.5% | 60.6% | 42.3% | 73.9% |
| Cn1cnc2c(F)c(Nc3ccc(Br)cc3Cl)c(C(=O)NOCCO)cc21 [selumetinib] + CCCCCCCCCCCC1=C(O)C(=O)C=C(O)C1=O [Embelin] (first compound 0.075 µM, partner dose 6 µM) | 89.1% | 56.6% | 62.4% | 47% | 113% | 63.6% | 54.8% | 64.8% | 95.7% | 85.2% |
| CCN(CC)CCNC(=O)c1c(C)[nH]c(/C=C2\C(=O)Nc3ccc(F)cc32)c1C [sunitinib] + O=c1cc(-c2cccc3c2Sc2ccccc2S3)oc(N2CCOCC2)c1 [KU55933] (first compound 2 µM, partner dose 5 µM) | 46.9% | 65% | 101% | 66.6% | 98.1% | 74.9% | 72.8% | 43.9% | 39.1% | 78.4% |
| C[C@]1(O)C[C@@H](c2nc(-c3ccc4ccc(-c5ccccc5)nc4c3)c3c(N)nccn32)C1 + CN(c1ncccc1CNc1nc(Nc2ccc3c(c2)CC(=O)N3)ncc1C(F)(F)F)S(C)(=O)=O [PF562271] (first compound 2 µM, partner dose 0.4 µM) | 59.6% | 76.5% | 64.2% | 81.7% | 64.3% | 84.1% | 62.3% | 68.9% | 44.1% | 86.3% |
| COc1cc([C@@H]2c3cc4c(cc3[C@@H](O[C@@H]3O[C@@H]5CO[C@@H](C)O[C@H]5[C@H](O)[C@H]3O)[C@H]3COC(=O)[C@H]23)OCO4)cc(OC)c1O [etoposide] + C=CCn1c(=O)c2cnc(Nc3ccc(N4CCN(C)CC4)cc3)nc2n1-c1cccc(C(C)(C)O)n1 [MK1775] (first compound 0.1 µM, partner dose 0.1 µM) | 82.6% | 69.8% | 94.3% | 48.6% | 95.3% | 100% | 84.2% | 70.6% | 63.7% | 86.2% |
| CCN(CC)CCNC(=O)c1c(C)[nH]c(/C=C2\C(=O)Nc3ccc(F)cc32)c1C [sunitinib] + CCN(CC)CCCCNc1ncc2cc(-c3cc(OC)cc(OC)c3)c(NC(=O)NC(C)(C)C)nc2n1 [PD173074] (first compound 2 µM, partner dose 0.5 µM) | 82.2% | 87.4% | 101% | 60% | 71.3% | 92.2% | 142% | 48.8% | 64.9% | 95.3% |
| CCN(CC)CCNC(=O)c1c(C)[nH]c(/C=C2\C(=O)Nc3ccc(F)cc32)c1C [sunitinib] + Oc1nc(-c2ccc(C(F)(F)F)cc2)nc2c1CSCC2 [XAV939] (first compound 2 µM, partner dose 10 µM) | 79.2% | 72% | 90.4% | 61.9% | 108% | 76.4% | 91.4% | 59.4% | 77.8% | 139% |
| CCN(CC)CCNC(=O)c1c(C)[nH]c(/C=C2\C(=O)Nc3ccc(F)cc32)c1C [sunitinib] + Cn1cc(/C=C2\C(=O)Nc3cccnc32)c2ccccc21 [GW441756] (first compound 2 µM, partner dose 2 µM) | 77.3% | 71.3% | 89.9% | 63.2% | 86.6% | 91.3% | 107% | 49.1% | 66.8% | 84.2% |
| CCN(CC)CCNC(=O)c1c(C)[nH]c(/C=C2\C(=O)Nc3ccc(F)cc32)c1C [sunitinib] + Cn1cncc1[C@@](N)(c1ccc(Cl)cc1)c1ccc2c(c1)c(-c1cccc(Cl)c1)cc(=O)n2C [tipifarnib] (first compound 2 µM, partner dose 0.05 µM) | 50.7% | 77.4% | 73.3% | 54.9% | 82.1% | 77.4% | 87.3% | 45.9% | 54.9% | 65.8% |
| COc1cc([C@@H]2c3cc4c(cc3[C@@H](O[C@@H]3O[C@@H]5CO[C@@H](C)O[C@H]5[C@H](O)[C@H]3O)[C@H]3COC(=O)[C@H]23)OCO4)cc(OC)c1O [etoposide] + COc1cc2c(Oc3ccc4[nH]c(C)cc4c3F)ncnc2cc1OCCCN1CCCC1 [cediranib] (first compound 0.1 µM, partner dose 2 µM) | 97.5% | 77.9% | 99.4% | 69.3% | 70.3% | 105% | 73% | 83.1% | 119% | 93.9% |
| Cn1cnc2c(F)c(Nc3ccc(Br)cc3Cl)c(C(=O)NOCCO)cc21 [selumetinib] + Cc1nc(Nc2ncc(C(=O)Nc3c(C)cccc3Cl)s2)cc(N2CCN(CCO)CC2)n1 [dasatanib] (first compound 0.075 µM, partner dose 0.02 µM) | 60.9% | 45.2% | 55.5% | 53.7% | 38.7% | 65% | 46.6% | 68% | 39.9% | 72.8% |
| Cn1cnc2c(F)c(Nc3ccc(Br)cc3Cl)c(C(=O)NOCCO)cc21 [selumetinib] + NC(=O)c1ccc(N(C(N)=O)c2c(F)cccc2F)nc1-c1ccc(F)cc1F [VX702] (first compound 0.075 µM, partner dose 2 µM) | 58% | 59.5% | 109% | 52.4% | 94.9% | 92.2% | 84.3% | 81.2% | 117% | 83.3% |
| CCN(CC)CCNC(=O)c1c(C)[nH]c(/C=C2\C(=O)Nc3ccc(F)cc32)c1C [sunitinib] + O=C(CCCCCCC(=O)Nc1ccccc1)NO [vorinostat] (first compound 2 µM, partner dose 0.4 µM) | 68% | 77% | 90% | 50.3% | 80.6% | 84.4% | 108% | 52.8% | 34.1% | 93.2% |
| Cn1cnc2c(F)c(Nc3ccc(Br)cc3Cl)c(C(=O)NOCCO)cc21 [selumetinib] + CC1(C)NC(=O)N(c2ccc([N+](=O)[O-])c(C(F)(F)F)c2)C1=O [nilutamide] (first compound 0.075 µM, partner dose 5 µM) | 59.6% | 56.7% | 84.7% | 42.7% | 107% | 90.5% | 80.1% | 76.1% | 143% | 78.7% |
| COc1cc([C@@H]2c3cc4c(cc3[C@@H](O[C@@H]3O[C@@H]5CO[C@@H](C)O[C@H]5[C@H](O)[C@H]3O)[C@H]3COC(=O)[C@H]23)OCO4)cc(OC)c1O [etoposide] + Cc1cc([N+](=O)[O-])ccc1NS(=O)(=O)c1cc(Cl)ccc1Cl [FH535] (first compound 0.1 µM, partner dose 5 µM) | 70.4% | 54.3% | 63.9% | 85% | 77.6% | 65.8% | 76.5% | 78.4% | 119% | 71.7% |
| Cn1cnc2c(F)c(Nc3ccc(Br)cc3Cl)c(C(=O)NOCCO)cc21 [selumetinib] + COc1cc2c(Oc3ccc4[nH]c(C)cc4c3F)ncnc2cc1OCCCN1CCCC1 [cediranib] (first compound 0.075 µM, partner dose 2 µM) | 80.6% | 62.9% | 85.9% | 40% | 48.3% | 85.6% | 60.3% | 65.2% | 47.5% | 57.1% |
| COc1cc([C@@H]2c3cc4c(cc3[C@@H](O[C@@H]3O[C@@H]5CO[C@@H](C)O[C@H]5[C@H](O)[C@H]3O)[C@H]3COC(=O)[C@H]23)OCO4)cc(OC)c1O [etoposide] + CN(c1ncccc1CNc1nc(Nc2ccc3c(c2)CC(=O)N3)ncc1C(F)(F)F)S(C)(=O)=O [PF562271] (first compound 0.1 µM, partner dose 0.4 µM) | 67.6% | 63% | 93.7% | 62.9% | 75.2% | 82.6% | 54.3% | 84.2% | 49.1% | 73.3% |

— the supplement of paper PMC4604168 (melanoma cell lines)
